# PubChem BioAssay AID488969 (Vanderbilt High Throughput Screening Facility, 2010)
# Whole data set: some 110,000 compounds, median “z-score” near -0.1, cut for the highest 2% near 2. The list shows a part of the results. Calls of active or inactive are those of the source.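 How the source made its calls: active means z-score in the third read window above 3 or below -3; inactive means the rest.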
# Biological target: Metabotropic glutamate receptor 8 (Rattus norvegicus) (UniProt P70579)
# Assay: mGluR8 Gi/Go-coupled signaling modulation – cell-based, rat, thallium flux, HTS, primary screen (AID 488969)
# Details: HEK293 rat mGluR8, GIRK (G protein-gated inwardly rectifying potassium channel) thallium flux, FluoZin2; at 10 µM; stronger effect = higher value; submaximal glutamate (EC20) added with thallium
# UniProt P70579, sequence (P70579 whole entry, looked up): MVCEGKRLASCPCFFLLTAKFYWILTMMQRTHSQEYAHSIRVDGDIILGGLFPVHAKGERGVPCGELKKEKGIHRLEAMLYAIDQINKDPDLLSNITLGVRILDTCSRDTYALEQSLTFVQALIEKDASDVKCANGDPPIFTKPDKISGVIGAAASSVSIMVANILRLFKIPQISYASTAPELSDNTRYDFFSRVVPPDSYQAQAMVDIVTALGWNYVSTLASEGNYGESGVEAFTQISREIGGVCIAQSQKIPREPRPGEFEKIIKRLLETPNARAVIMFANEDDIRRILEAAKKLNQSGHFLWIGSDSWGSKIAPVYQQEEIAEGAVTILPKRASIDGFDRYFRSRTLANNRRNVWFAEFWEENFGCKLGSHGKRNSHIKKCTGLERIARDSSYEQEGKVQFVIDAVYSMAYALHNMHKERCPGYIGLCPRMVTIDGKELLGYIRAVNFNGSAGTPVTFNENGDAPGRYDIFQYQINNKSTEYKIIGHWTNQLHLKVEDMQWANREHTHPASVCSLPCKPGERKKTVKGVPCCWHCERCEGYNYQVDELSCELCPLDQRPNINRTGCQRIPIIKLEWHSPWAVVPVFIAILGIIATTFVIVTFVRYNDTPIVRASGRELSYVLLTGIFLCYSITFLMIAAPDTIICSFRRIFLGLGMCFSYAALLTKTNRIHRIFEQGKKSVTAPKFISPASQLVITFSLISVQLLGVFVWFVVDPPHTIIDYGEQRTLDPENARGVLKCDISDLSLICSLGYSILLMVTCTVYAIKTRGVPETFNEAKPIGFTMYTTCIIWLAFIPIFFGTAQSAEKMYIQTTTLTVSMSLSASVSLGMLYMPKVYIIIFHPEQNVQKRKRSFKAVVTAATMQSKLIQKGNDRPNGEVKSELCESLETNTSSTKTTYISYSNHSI
row,Structure (SMILES),z-score
1,CCn1c(NN)nc2sc3c(c2c1=O)CCC3,1.56
2,O=C(Nc1cc2c3c(c1)C1CCCC1CN3CC1CCCC21)c1ccc([N+](=O)[O-])cc1 (stereo not given),0.0676
3,O=C(CN(Cc1ccccc1)C(=O)c1cc2c(s1)CCC2)NCc1cccs1,-0.121
4,CC/C(=N/NC(=O)c1ccc(Br)cc1)c1ccc(OCCN2CCOCC2)cc1,0.509
5,C=CCn1c2ccccc2c2nnc(SC(CC)C(=O)Nc3sc4c(c3C#N)CCCC4)nc21 (stereo not given),-0.689
6,O=C(CN1CCCCCCC1)N/N=C/c1ccccc1F,-0.0187
7,O=C(O)C1CC(O)CN1C(=O)c1ccco1 (stereo not given),-0.286
8,Cc1ccccc1CCN(C(=O)CN1C(=O)c2ccccc2S1(=O)=O)C(C(=O)NCC1CCCO1)c1ccncc1 (stereo not given),-0.37
9,CN(C(=O)c1ccco1)c1nc2c(s1)CCCC2,-0.447
10,O=C(COc1ccccc1Cl)N1CCN(c2ccc([N+](=O)[O-])c(N3CCCCC3)c2)CC1,-1.03
11,O=c1c2nnn(Cc3ccc(Cl)cc3)c2ncn1Cc1ccc(F)cc1,-0.115
12,COC(=O)CC(NC(=O)c1ccco1)c1ccc(C(C)C)cc1 (stereo not given),0.0776
13,COC(=O)CCc1c(C)nc(N)[nH]c1=O,0.278
14,CC(=O)Nc1c(C(=O)N2CCOCC2)sc2nc3c(cc12)COC(C)(C)C3,0.0685
15,CCOC(=O)Cn1cc(C(=O)c2cccs2)c2ccccc21,-0.568
16,COC(=O)c1c(C(=O)OC)c(-c2ccccc2)n2c1CCC2,-0.151
17,COCCSc1ccccc1C(=O)Nc1cc(C)on1,-0.199
18,Cc1cc([N+](=O)[O-])ccc1-c1ccc(C2Nc3ccccc3C(=O)N2O)o1 (stereo not given),active: 3.53
19,Cc1ccc2cc3cc(C(=O)N4CC(C)CC(C)C4)oc3nc2c1 (stereo not given),0.501
20,Cc1ccc(C)c(NC(=O)CS(=O)(=O)c2c[nH]c3ccccc23)c1,0.438
21,CC1CCN(C(=O)CSc2nnc(CNC(=O)COc3ccc(Cl)cc3)o2)CC1,-0.0799
22,O=C(COc1ccc(Cl)cc1Br)NC(=O)NCc1ccccc1,-0.086

row,Structure (SMILES),z-score
1,COc1ccccc1N1CCN(CCCNC(=O)Nc2ccccc2C)CC1,-0.626
2,Cc1ccc2c(c1)C(N1CCCC1=O)CC(c1ccco1)N2 (stereo not given),0.098
3,CCOC(=O)c1ccc(N2C(=O)c3n[nH]c(C)c3C2c2ccccc2)cc1 (stereo not given),-0.773
4,Nc1c(Cl)cc(Cl)cc1C(=O)OCC(=O)NC1CC1,-0.299
5,CCOC(=O)c1c(C)[nH]c(C)c1C(=O)COC(=O)c1cccc(S(=O)(=O)N(CC)CC)c1,-0.349
6,CC1CCCCC1NC(=O)C1CCN(S(=O)(=O)c2ccc(-n3cnnn3)cc2)CC1 (stereo not given),-0.507
7,CCOc1cc(C2Nc3ccccc3C(=O)N2c2ccccc2OC)ccc1O (stereo not given),0.837
8,C=C(C)C1CC=C(C)/C(=N/NC(=O)c2cccs2)C1 (stereo not given),-0.0743
9,COc1ccc2c(c1)[nH]c1c(=O)n(CCCN3CCOCC3)cnc12,-0.031
10,CC(NC(=O)C12CC3CC(CC(C3)C1)C2)C(=O)N/N=C/C1=C(N2CCOCC2)C(=C\c2cccc([N+](=O)[O-])c2)/CC1 (stereo not given),-0.208
11,O=C(N/N=C/c1cccc([N+](=O)[O-])c1)c1ccc2c(c1)OCCO2,0.192
12,COc1ccc(C(CNC(=O)COc2ccccc2C#N)N2CCOCC2)cc1 (stereo not given),0.00444
13,COc1ccc(NC(=O)c2ccco2)cc1NC(=O)c1ccc(C)cc1,-0.304
14,CCn1c(NCc2ccccc2Cl)nc2ccccc21,-0.202
15,COc1ccc(OC)c(C(=O)CSc2nc3cccnc3n2C)c1,0.718
16,COC(=O)c1cc(NC(=O)c2ccc(-c3ccccc3)cc2)ccc1Cl,-1.57
17,CCC(C)NC(=O)C1CCCCN1S(=O)(=O)c1ccc(F)cc1 (stereo not given),-0.179
18,CN(C)C(=O)c1noc2cc([N+](=O)[O-])ccc12,0.192
19,CCOC(=O)c1cnc2c(C(=O)OC)cccc2c1NCc1ccco1,-0.328
20,CS(=O)(=O)Nc1ccc(C(=O)NCc2ccco2)cc1,1.02
21,O=C(COc1ccc([N+](=O)[O-])cc1)NCCC1=CCCCC1,-0.0621
22,Cc1cccc(OCc2nc(C#N)c(NCc3ccc4c(c3)OCO4)o2)c1,1.74

row,Structure (SMILES),z-score
1,Cc1cc2oc(C(=O)NC3CCS(=O)(=O)C3)c(C)c2cc1C (stereo not given),-0.187
2,CCN(CC)CCn1c2ccccc2c2cnc(N=CN(C)C)c(C#N)c21,0.93
3,COC(=O)c1ccc(/C=N\N2CCN(Cc3ccc(C)cc3)CC2)cc1,-0.269
4,Cc1cc(C(=O)NCc2ccc(S(N)(=O)=O)cc2)ccc1[N+](=O)[O-],0.205
5,Cc1nc(-n2nnc3cc(C)c(C)cc32)c2c3c(sc2n1)CCCC3,-0.163
6,Cc1onc(-c2ccccc2Cl)c1-c1nc(-c2ccncc2)no1,-0.0851
7,O=C(NC1CCN(Cc2ccccc2)CC1)C1CCCN(S(=O)(=O)c2cccc3nonc23)C1 (stereo not given),0.117
8,O=C(CCN1CCN(c2ccccc2)CC1)Nc1nccs1,0.002
9,Cc1nc2ccc(S(=O)(=O)NCC(=O)O)cc2s1,0.425
10,Cc1sc2ncnc(SCC(=O)N3CCCC3=O)c2c1C,2.71
11,O=Cc1cccc(OC(=O)c2ccc(Cl)cc2Cl)c1,-0.0993
12,CCOc1ccc(C(=O)NC(=S)Nc2ccc(N3CCOCC3)c(Cl)c2)cc1[N+](=O)[O-],1.52
13,Cc1ccccc1C(=O)NNC(=O)Cc1cccc2ccccc12,-0.273
14,O=C(Nc1ccccn1)c1cc(-c2cccnc2)nc2ccc(Br)cc12,-0.0675
15,COc1ccc(-n2ccc(-c3nn(-c4cccc(C(F)(F)F)c4)ccc3=O)n2)cc1,-0.749
16,Cc1nc(NS(=O)(=O)c2ccccc2C)c2c3c(sc2n1)CCC3,-0.235
17,COc1ccc(C(=O)NCc2nnc(SCC(=O)Nc3nc4ccccc4s3)o2)cc1OC,-0.301
18,NC(=O)C1(N2CCCCC2)CCN(S(=O)(=O)c2cc(Cl)ccc2Cl)CC1,-0.254
19,O=C(COC(=O)CN1C(=O)C2CCCCC2C1=O)Nc1ccc(S(=O)(=O)N2CCOCC2)cc1 (stereo not given),-0.0161
20,CC[n+]1c(/C=C/C=C/N(C(C)=O)c2ccccc2)sc2cc(OC)ccc21,-0.183
21,CCOc1ccc(OCC)c(NC(=O)CC2Oc3ccccc3NC2=O)c1 (stereo not given),0.102
22,FC(F)Sc1ccc(N=C2NN=C(c3ccc4c(c3)OCCO4)CS2)cc1,0.174

row,Structure (SMILES),z-score
1,CCOc1ccc(N2C(=O)CC(Sc3nc(C)cc(C)c3C#N)C2=O)cc1 (stereo not given),0.15
2,O=C(NC1(C(F)(F)F)C(=O)Nc2c1c(=O)[nH]c(=O)n2Cc1ccccc1)c1ccc(Cl)cc1 (stereo not given),-0.0254
3,O=C(O/N=C\c1ccc(N2CCCCC2)c([N+](=O)[O-])c1)c1c(F)cccc1F,2.03
4,CCOc1ccc(C(=O)N2CCc3cc(OC)c(OC)cc3C2)cc1OCC,-1.52
5,CC(NC(=O)COc1ccccc1)C(=O)OCC(=O)c1cc2ccccc2o1 (stereo not given),-0.987
6,Cc1noc(NS(=O)(=O)c2ccc(NC(=O)c3cnc4n(c3=O)CCS4)cc2)c1C,-0.25
7,O=C(NCCCN1CCOCC1)c1ccc(Br)cc1,-0.626
8,COC(=O)C1CCN(C(=O)N2CCOCC2)CC1,0.0127
9,CCC(C)Nc1nc(-c2cccc(OC)c2O)nc2ccccc12 (stereo not given),-1.44
10,CN1CCN(c2oc(COc3ccc(-c4ccccc4)cc3)nc2C#N)CC1,0.843
11,Cn1c(SCC(=O)Nc2nccs2)nnc1C12CC3CC(CC(C3)C1)C2,-0.308
12,Fc1cccc(Cl)c1CNC(c1ccccc1)c1ccccc1,-0.0753
13,CCOC(=O)C[n+]1c(C)sc2ccc(OC)cc21,-0.52
14,CCC(C)c1ccc(NC(=S)Nc2ccc(OC)cc2C)cc1 (stereo not given),0.0172
15,Cn1cnnc1SCC(=O)c1cc2ccccc2oc1=O,-0.329
16,COC(=O)C1=C(C(=O)c2ccc(C)cc2)C(c2ccc(O)c(OC)c2)n2nnnc2N1 (stereo not given),-0.252
17,CC(C)(C)NC(=O)c1sccc1C(=O)O,0.115
18,Cc1c(Cc2ccccc2)c(=O)oc2c(C)c(OCc3nn[nH]n3)ccc12,-0.174
19,O=C(/C=C/c1ccc2c(c1)OCCCO2)c1ccccc1O,0.562
20,O=c1c2c3c(sc2nc2n1N=C(c1cccs1)CS2)CCCC3,0.522
21,O=C1CC(N2CCN(c3ccccn3)CC2)C(=O)N1CC(c1ccccc1)c1ccccc1 (stereo not given),-0.182
22,COc1ccccc1NC1=NC(C)(C)N=C(N)N1,-0.029

row,Structure (SMILES),z-score
1,Cc1sc2nc(N)sc2c1C,0.431
2,Cc1nnc(SCC(=O)Nc2ncc3c(n2)CC(c2ccccc2)CC3=O)s1 (stereo not given),-0.241
3,O=C(COC(=O)c1cncc(Br)c1)NCCC1=CCCCC1,-0.212
4,COc1cccc(S(=O)(=O)N2CCOCC2)c1,0.363
5,CC(C)c1cc(C(=O)O)n[nH]1,0.159
6,Cc1cccn2c(=O)c(/C=C(\C#N)C(=O)NCc3ccco3)c(N3CCCCC3)nc12,-0.532
7,CCOC(=O)CCC(=O)N1CCOCCOCCOCC1,-0.0418
8,Cc1cccc2cc(COC(=O)COc3ccccc3)c(=O)[nH]c12,0.558
9,COCCNC(=O)c1cc(-c2ccccc2OC)on1,0.615
10,COC(=O)Cc1[nH]n(-c2nc3ccccc3s2)c(=O)c1C(C)=O,0.0239
11,O=S(=O)(Nc1ccc(N=Nc2ccc(O)c3ccccc23)cc1)c1ccccc1,0.0802
12,CN1CCN(CC(O)COc2ccc(Cl)cc2)CC1 (stereo not given),-0.061
13,COc1ccc(NC(=S)c2ccncc2)cc1,-0.313
14,COc1cc(/C=C(/C#N)c2ccc(F)cc2)ccc1Oc1ccc([N+](=O)[O-])cn1,-0.405
15,COc1ccc(S(=O)(=O)N(C)C)cc1NCC(=O)Nc1ccc(Br)cc1F,-0.135
16,Cc1noc(C)c1S(=O)(=O)N1CCC(C(=O)NCCC2=CCCCC2)CC1,-0.21
17,COc1ccc(C(=O)CCNc2cccc(Cl)c2)cc1,0.477
18,CC(c1ccco1)N(C(=O)c1ccccc1NS(=O)(=O)c1cc([N+](=O)[O-])ccc1Cl)c1ccccn1 (stereo not given),2.18
19,CCN(CC)c1ccc(N2C(=O)C3CCCCC3C2=O)cc1[N+](=O)[O-] (stereo not given),-0.215
20,O=C1C2CC=CCC2C(=O)N1CNc1ccccc1 (stereo not given),0.0347
21,CC1Cc2ccccc2N1C(=O)CSc1ccccc1 (stereo not given),-0.501
22,O=C(NC(NC(=S)Nc1c(Cl)cccc1Cl)C(Cl)(Cl)Cl)OCc1ccccc1 (stereo not given),-0.771
